PubChem BioAssay AID652104 (National Center for Advancing Translational Sciences (NCATS), 2013)
The whole screen tested about 410,000 compounds, of which about 7,200 (1.8%) were called active. The inconclusive results got no clear call from the source; some entries with a clear call stand among them for comparison. The call rests on the fitted dose curve; in most records, active means well fitted activation curve with a large enough effect; inconclusive means small, poorly fitted or top-dose-only effect, or another doubt; inactive means no such curve, though single readings can be large or run the other way. No potency is given beside an inconclusive call; the fits are too rough.

Assay: qHTS of TDP-43 Inhibitors; further: nearly all actives have a fitted effect of over 50% in size; on growth rescue (activation): % of control where 0% means no effect
Conditions: TDP-43 expressing yeast growth rescue, BacTiter-Glo, 24 h; growth rescue (activation): at 46.1 µM (top of the series) unless noted
Procedure, shortened: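 Cell-based yeast growth screen: TDP-43 expression induced in galactose, inoculum OD600=0.02 after raffinose pregrowth to mid-log. Read-out BacTiter-Glo luminescence at 24 hr, 30 deg C; inhibition of toxicity seen as signal increase.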
Potency means the concentration at half of the fitted maximal effect; tags describe the fitted curve by direction and shape.

SMILES | Potency | growth rescue (activation)
O=S(=O)(NCc1cc(-c2ccccc2Cl)no1)c1ccc(Cl)cc1 | inconclusive [activator, single point] | –
CS(=O)(=O)N1CCC(C(=O)Nc2ccccc2)CC1 | – | inactive: -8.65%
CCOC(=O)c1ccc(NS(=O)(=O)c2ccc(SC)cc2)cc1 | inconclusive [activator, single point] | –
CCN(CC)S(=O)(=O)c1ccc(C(=O)NCCSc2c(-c3ccc(C)cc3)[nH]c3ccccc23)cc1 | inconclusive [activator, partial curve] | –
COc1ccc(-c2csc3ncnc(N4CCN(c5cccc(OC)c5)CC4)c23)cc1 | active: 11.2 µM | –
O=Cc1cn(CCOc2ccccc2F)c2ccccc12 | inconclusive [activator, single point] | –
C=CCn1c(N/N=C/c2ccc(O)cc2)nc2ccccc2c1=O | inconclusive [activator, full curve, poor fit] | –
CC1CC(C)CN(C(=O)c2ccc3c(c2)N(Cc2ccccc2)CCS3)C1 (stereo not given) | inconclusive [activator, single point] | –
COC(=O)c1cccc(NC(=O)c2nsc3ccccc23)c1 | – | inactive: 15.3%
COc1ccc(/C=C/c2c([N+](=O)[O-])c(=O)n(C)c(=O)n2C)cc1OC | – | inactive: -14.3%
O=C(Cc1ccc2c(c1)OCCO2)N1CCN(S(=O)(=O)c2cccc(Cl)c2Cl)CC1 | inconclusive [activator, single point] | –
Cc1ccc(NC(=O)COC(=O)CN2CCSC2=O)cc1Cl | inconclusive [activator, partial curve] | –
Cc1nn(C)cc1CN(C)C(=O)CC12CC3CC(CC(C3)C1)C2 | active: 22.4 µM | –
O=c1oc2cc(O)ccc2cc1-c1nnc(Nc2ccccc2F)s1 | – | inconclusive: 10.2% [activator]
CCn1c(C(=O)N2CCC(C(=O)NCCCSC3CCCCC3)CC2)cc2sccc21 | inconclusive [activator, single point] | –
O=C(N/N=C/c1c[nH]c2ccc(Br)cc12)c1ccn(Cc2ccc(Cl)cc2Cl)n1 | – | inactive: 20.1%
CC(C)Cn1cnc2c(c(-c3ccccc3)c(-c3ccccc3)n2Cc2ccco2)c1=N | inconclusive [activator, single point] | –
Cc1ccc(CNC(=O)CSc2c3c(nc4cc(Cl)ccc24)CCCC3)cc1 | inconclusive [activator, partial curve] | –
C=C(C)COc1ccc(-c2nc(N)nc(C)c2Oc2ccccc2OC)c(O)c1 | inconclusive [activator, full curve, poor fit] | –
COc1ccc(-n2c(-c3ccc(C)cc3)cc3c2CC(C)(C)CC3=O)c(OC)c1 | – | inactive: 28%
Cc1nc(C)c(-c2ccc(SCc3ccc([N+](=O)[O-])cc3)nn2)s1 | inconclusive [activator, single point] | –
Cn1c(SCc2nc3ccccc3c(=O)[nH]2)nc2ccccc21 | inconclusive [activator, partial curve] | –
COc1ccc(NC(=O)ON=C2c3ccccc3-c3ccccc32)cc1 | inconclusive [activator, single point] | –
O=C(Nc1nccs1)c1ncc(Cl)c(Cl)c1Cl | inconclusive [activator, single point] | –

SMILES | Potency | growth rescue (activation)
COc1ccc(-c2noc(=O)n2Cc2ccccc2Cl)cc1 | active: 20 µM | –
CCCN(CC(=O)Nc1ccccc1C)C(=O)Cc1c(C)nc2ccccc2c1C | – | inactive: 14%
CC1CC(C)CN(S(=O)(=O)c2ccc(NC(=O)[C@@H]3CCCN3C(=O)c3cccs3)cc2)C1 (stereo not given in full) | – | inconclusive: 14.2% [activator]
CCOC(=O)N1C2=NC(C(=O)OC)=C(C(=O)OC)[C@@H]3N(C)c4ccc(OC)cc4[C@]23C[C@H]1C(=O)OC | inconclusive [activator, partial curve] | –
Cc1cccc(Nc2nc(-c3ccc(F)cc3)cs2)n1 | inconclusive [activator, single point] | –
Cc1ccc(-c2cc(C(=O)Oc3ccccc3Cl)no2)cc1C | – | inactive: 10.3%
CCCCOC(=O)c1ccc(NC(=O)c2cnc3n(c2=O)CCS3)cc1 | inconclusive [activator, full curve] | –
O=C(O)c1ccc(N/N=C/c2ccc(-c3ccccc3)cc2)cc1 | active: 5.62 µM | –
COc1cccc(CNC(=O)C(=O)Nc2ccc3nc4n(c(=O)c3c2)CCCCC4)c1 | inconclusive [activator, partial curve] | –
O=C(CC1N=C2c3ccccc3N=C(SCc3cccc(F)c3)N2C1=O)NCc1ccc2c(c1)OCO2 (stereo not given) | – | inactive: 7.95%
c1csc(-c2nn3cnnc3c3ccccc23)c1 | active: 22.4 µM | –
COc1cccc(-c2ccc(SCC(=O)NC3CCCCC3)nn2)c1 | inconclusive [activator, single point] | –
CC(=O)c1ccc(C(=O)N2CCc3c([nH]c4ccccc34)C2c2cccc(C)n2)s1 (stereo not given) | inconclusive [activator, single point] | –
COC(=O)c1ccc(CSc2nc3c(c(=O)[nH]2)CCC3)cc1 | inconclusive [activator, partial curve, poor fit] | –
O=C(O)c1nn(CCOc2cccc(Br)c2)c(=O)c2ccccc12 | inconclusive [activator, single point] | –
CC1CCC(NC(=O)c2ccc(CS(=O)(=O)c3c(Cl)cccc3Cl)o2)CC1 (stereo not given) | active: 35.5 µM | –
O=c1[nH]c(CCC2CCCC2)nc2ccccc12 | inconclusive [activator, single point] | –
COc1ccc(CCNC(=O)c2ccc3c(Cl)c4c(nc3c2)CCCC4)c(OC)c1 | active: 35.5 µM | –
CS(=O)(=O)N1CCCc2cc(C(=O)Nc3cccc(C(F)(F)F)c3)ccc21 | – | inactive: 17.3%
COC(=O)c1cc(=O)n(Cc2ccco2)c(=Nc2ccc(F)cc2)s1 | inconclusive [activator, partial curve] | –
O=C(Nc1cc(Cl)cc(Cl)c1)c1ccc(F)c(S(=O)(=O)NC2CCCCC2)c1 | – | inactive: 17.1%
CCc1cc(SC#N)ccc1N | inconclusive [activator, single point] | –
CCCCc1ccc(NC(=O)CSc2nc3ccccc3nc2N2CCOCC2)cc1 | – | inactive: 27.2%
Cc1ccccc1N1CC(C(=O)N2CCc3ccccc32)CC1=O (stereo not given) | – | inconclusive: 30.6% [activator]

SMILES | Potency | growth rescue (activation)
COc1ccc(CCNC(=O)CCSCc2ccccc2Cl)cc1OC | inconclusive [activator, single point] | –
CC1CCCC(NC(=O)c2nn(C)c3c2CS(=O)(=O)c2ccccc2-3)C1C (stereo not given) | inconclusive [activator, partial curve] | –
CCOC(=O)c1ccc2c(c1)N(Cc1ccccc1)C(=O)c1ccccc1S2 | inconclusive [activator, partial curve] | –
COC(=O)C[C@H]1c2cc(C(F)(F)F)ccc2S(=O)(=O)N1C(C)(C)C | inconclusive [activator, partial curve] | –
Nc1ccccc1Sc1ccccc1[N+](=O)[O-] | active: 17.8 µM | –
Cc1ccc(C)c(N2CCN(S(=O)(=O)c3cnc(N)nc3)CC2)c1 | inconclusive [activator, partial curve] | –
Cc1nc(C)c(-c2ccc(SCc3ccc(Cl)cc3)nn2)s1 | inconclusive [activator, partial curve] | –
O=C(O)c1cccc([N+](=O)[O-])c1C(=O)Nc1ccc2ccccc2c1 | inconclusive [activator, partial curve] | –
O=C(c1cccc(Cl)c1)N1CCC(=O)N(C(COCc2ccccc2)Cc2ccccc2)CC1 (stereo not given) | inconclusive [activator, partial curve] | –
CC(C)(C)c1ccc(C(=O)O/N=C(\N)c2ccccn2)cc1 | inconclusive [activator, single point] | –
COc1ccc(Cc2c(-c3cccc(Cl)c3)nc3ccc(Br)cn23)c(C)c1 | inconclusive [activator, partial curve] | –
CNC(=S)SCCOc1ccccc1C | inconclusive [activator, partial curve] | –
O=C1c2ccc(Cl)cc2S(=O)(=O)c2cccc(C(=O)N3CCC(Cc4ccccc4)CC3)c21 | inconclusive [activator, single point] | –
COC(=O)c1cc(Br)ccc1NC(=O)Nc1ccc(C)cc1 | – | inactive: 17.9%
COc1ccc(-c2ccc(=O)n(Cc3cccc([N+](=O)[O-])c3)n2)cc1 | active: 17.8 µM | –
COc1ccc(N2CCN(C(C)C(=O)N3CCCC3)CC2)cc1 (stereo not given) | – | inactive: -9.6%
CCOC(=O)c1ccc(NC2c3ccccc3C(=O)N2c2ccc(C)cn2)cc1 (stereo not given) | – | inactive: 0%
COC(=O)CNC(=O)COC(=O)c1cc(Cl)cc(Cl)c1N | inconclusive [activator, partial curve] | –
O=C(c1ccco1)N1c2ccccc2Sc2ccccc21 | inconclusive [activator, single point] | –
O=C(CSc1ncc(-c2ccccc2)[nH]1)Nc1cccc(C(F)(F)F)c1 | inconclusive [activator, partial curve] | –
Cc1cc(C)nc(N2N=C(c3ccccc3)CC2=O)n1 | inconclusive [activator, single point] | –
CCOC(=O)c1nnsc1-c1ccc(-c2snnc2C(=O)OCC)cc1 | – | inactive: -0.0722%
